Among all 360,000 compounds or so, about 25,000 (6.9%) were called active. Inconclusive results, whose numbers are uncertain, are shown with a selection of clear calls. Calls come from the whole dose curve; as a rule, active = well fitted inhibition curve with a large enough effect; inconclusive = small, poorly fitted or top-dose-only effect; inactive = flat fitted curve, though single readings scatter. Potencies of inconclusive entries are doubtful fits and often do not repeat.
Each molecule was assayed against Luciferin 4-monooxygenase (Photinus pyralis) (UniProt P08659) (assay: qHTS profiling assay for firefly luciferase inhibitor/activator using purifed enzyme and Km concentrations of substrates (counterscreen for miR-21 project)). Conditions: purified FLuc, luminescence inhibition; activity change, negative = inhibition: at 57.5 µM (top of the series).
Sequence of UniProt P08659 (P08659 whole entry, looked up): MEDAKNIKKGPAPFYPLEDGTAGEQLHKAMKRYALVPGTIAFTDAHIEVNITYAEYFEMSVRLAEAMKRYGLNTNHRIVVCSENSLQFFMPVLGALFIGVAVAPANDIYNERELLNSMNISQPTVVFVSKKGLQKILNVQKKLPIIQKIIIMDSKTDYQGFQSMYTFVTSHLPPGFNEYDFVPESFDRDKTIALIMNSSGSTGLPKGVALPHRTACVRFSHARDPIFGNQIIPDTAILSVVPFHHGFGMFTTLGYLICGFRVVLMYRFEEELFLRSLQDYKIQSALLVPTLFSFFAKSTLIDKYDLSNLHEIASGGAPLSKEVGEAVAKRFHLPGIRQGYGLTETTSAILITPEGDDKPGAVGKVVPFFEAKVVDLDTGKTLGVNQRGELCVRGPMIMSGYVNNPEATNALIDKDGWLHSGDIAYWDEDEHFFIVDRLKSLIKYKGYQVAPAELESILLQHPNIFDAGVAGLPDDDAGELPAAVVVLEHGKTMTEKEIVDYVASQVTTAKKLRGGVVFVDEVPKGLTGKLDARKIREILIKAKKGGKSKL
Method in brief: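 Biochemical qHTS of compounds, final roughly 60 µM downward over six points, against 10 nM purified firefly luciferase using Km concentrations of substrates (10 uM D-luciferin, 10 uM ATP) in Tris acetate pH 7.5 buffer; luminescence output.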
In the case of COc1ccc(/C=N/n2c(N)nc(-c3ccccc3)c2-c2ccccc2)cc1, the Potency is reported as inconclusive: 37.9 µM [inhibitor, partial curve, poor fit]. For CCCCn1c(N)c(N(CC(C)C)C(=O)c2ccc(Cl)c(S(=O)(=O)N3CCCC3)c2)c(=O)[nH]c1=O, the “activity change, negative = inhibition” value was inactive: 3.48%. With COc1ccc(NC(=O)CN(C)C(=O)c2cccc(S(=O)(=O)Nc3ccc(OC)cc3)c2)cc1 the “activity change, negative = inhibition” value was inactive: 8.14%. In the case of CCC(=O)C(C#N)(c1ccc(OC)c(OC)c1)C(C)C (centres undefined), the “activity change, negative = inhibition” value is reported as inactive: -0.162%. For CCOC(=O)N1CCc2c(sc(NCc3cccc(F)c3)c2C(=O)Nc2ccccc2OCC)C1, the “activity change, negative = inhibition” value was inactive: -18.1%. CC(C)COc1ccc(C(=O)Nc2cccc(-c3nc4ccccc4[nH]3)c2)cc1 was tested, and the Potency was inconclusive: 8.49 µM [inhibitor, partial curve]. With c1ccc(CSc2nnc(-c3cccs3)n2Cc2ccco2)cc1 the Potency was inconclusive: 37.9 µM [inhibitor, partial curve, poor fit]. For COc1ccc(/C=C(\C#N)C(=O)OCCNC(=O)c2ccncc2)cc1, the Potency was inconclusive: 37.9 µM [inhibitor, partial curve, poor fit]. O=C(NC1(C(F)(F)F)C(=O)Nc2c1c(=O)[nH]c(=O)n2CCc1ccccc1)c1ccc(Cl)cc1Cl (centres undefined) was tested, and the Potency was inconclusive: 15.1 µM [inhibitor, partial curve]. COC(=O)c1ccc(NC(=O)N2CCCC(C(=O)c3ccccc3OC)C2)cc1 (centres undefined) was tested, and the Potency was inconclusive: 26.9 µM [inhibitor, single point]. With Cn1c(/N=C/c2ccc3c(c2)OCO3)nc2ccccc21 the Potency was active: 0.239 µM. In the case of Cc1noc(NS(=O)(=O)c2ccc(NC(=O)CSc3n[nH]c(-c4ccccc4)n3)cc2)c1C, the Potency is reported as inconclusive: 26.9 µM [inhibitor, single point]. In the case of Oc1ccc(-c2cnns2)c(O)c1, the Potency is reported as inconclusive: 21.3 µM [inhibitor, single point]. Cc1c(C(=O)OCC(=O)N2CCCC2=O)oc2ccccc12 was tested, and the Potency was active: 16.9 µM. In the case of CC(C)(C)C1=C(C#N)C(c2ccc3c(c2)OCO3)C(C#N)=C(N)O1 (centres undefined), the Potency is reported as inconclusive: 30.1 µM [inhibitor, partial curve, poor fit]. For Cc1ccc(CNC(=O)c2cc3c(s2)-c2ccccc2SC3)cc1, the “activity change, negative = inhibition” value was inactive: -5.51%. For Cc1ccc(OCC(=O)N/N=C/C=C/c2ccco2)c(Br)c1, the Potency was inconclusive: 10.7 µM [inhibitor, partial curve]. With CN(C)c1ncc(/C=C2/C(=O)NC(=S)N(C3CCCCC3)C2=O)cn1 the Potency was inconclusive: 21.3 µM [inhibitor, single point]. In the case of O=C1/C(=C\Nc2ccc(Cl)cc2)CCN1c1ncccn1, the Potency is reported as active: 4.78 µM. For CN(Cc1ccccc1)C(=O)CCC1CCN(C(=O)CCC(F)(F)F)CC1, the Potency was inconclusive: 26.9 µM [inhibitor, partial curve]. With CCCCOc1ccc(C(=O)N2CCCC2)cc1 the Potency was inconclusive: 16.9 µM [inhibitor, partial curve]. For O=C(Nc1ccc(Oc2ccccc2)cc1)c1ccco1, the Potency was active: 5.36 µM. In the case of COCC1CCCCN1C(=O)c1ccc2oc(CCc3ccccc3)nc2c1 (centres undefined), the Potency is reported as inconclusive: 19 µM [inhibitor, single point]. For O=C(c1cc2cc(Br)ccc2o1)N1CCCC1, the Potency was inconclusive: 19 µM [inhibitor, partial curve]. For O=C(N/N=C/c1c[nH]c2ccccc12)c1ccc2c(c1)OCCO2, the Potency was active: 0.953 µM. In the case of O=C(COc1ccc(Cl)cc1)Nc1ccc(C(=O)OCc2cc(=O)n3ccsc3n2)cc1, the “activity change, negative = inhibition” value is reported as inactive: -5.71%. In the case of COC(=O)c1ccc(OC(=O)/C=C/c2ccco2)cc1, the Potency is reported as active: 2.39 µM. Cc1nn(-c2ccccc2)c(C)c1/C=C/C(=O)OC(C)C(N)=O (centres undefined) was tested, and the “activity change, negative = inhibition” value was inactive: 0.623%. C/C(=N\NC(=O)c1nnn(-c2nonc2N)c1C(C)C)c1ccncc1 was tested, and the “activity change, negative = inhibition” value was inactive: -0.15%. In the case of COc1ccc(/C=N/NC(=O)c2ccc(NC(=O)C3CCCCC3)cc2)cc1O, the Potency is reported as inconclusive: 26.9 µM [inhibitor, partial curve, poor fit]. With CCS(=O)(=O)C1=NN2C(=N)/C(=C\c3ccc(OS(=O)(=O)c4ccccc4)cc3)C(=O)N=C2S1 the Potency was inconclusive: 37.9 µM [inhibitor, partial curve, poor fit]. In the case of O=C(COC(=O)CNC(=O)C1CCCCC1)Nc1ccc2c(c1)OCCO2, the Potency is reported as active: 19 µM. In the case of CCOC(=O)/C=C/C(=O)Nc1ccc(S(=O)(=O)Nc2nccs2)cc1, the “activity change, negative = inhibition” value is reported as inactive: -2.89%. For O=[N+]([O-])c1ccccc1NC(=S)N/N=C/c1ccc(O)c(O)c1, the Potency was active: 19 µM. With CCOc1ccccc1N1CCN(C(=O)c2csc(C)c2CC)CC1 the “activity change, negative = inhibition” value was inactive: -0.512%. Cc1ccc(CSc2nnc(-c3ccc4c(c3)OCO4)o2)cc1 was tested, and the Potency was inconclusive: 19 µM [inhibitor, partial curve]. With CCOC(=O)N1CCN(C(=O)c2ccc3c(c2)NC(=O)/C(=C/c2ccccc2)S3)CC1 the Potency was inconclusive: 37.9 µM [inhibitor, single point]. COCCCNC(=S)Nc1ccc(C)cc1 was tested, and the Potency was inconclusive: 37.9 µM [inhibitor, partial curve, poor fit]. For Cc1c(/C=N/NC(=O)c2sc3ccccc3c2Cl)cnn1C, the Potency was inconclusive: 19 µM [inhibitor, partial curve]. O=C(CC(C(=O)O)c1ccc(Cl)cc1)c1ccc(Cl)c(Cl)c1 (centres undefined) was tested, and the Potency was inconclusive: 23.9 µM [inhibitor, partial curve, poor fit]. CC(Oc1ccc(Cl)cc1Cl)C(=O)Nc1ccc(OCC(=O)O)cc1 (centres undefined) was tested, and the Potency was inconclusive: 26.9 µM [inhibitor, single point]. CC1CCN(c2ccc(C(=O)O)cc2NS(=O)(=O)c2ccc(Br)cc2)CC1 was tested, and the “activity change, negative = inhibition” value was inactive: 3.37%. In the case of Cc1ccc(CN(C(=O)c2ccccc2F)c2ccccn2)o1, the “activity change, negative = inhibition” value is reported as inactive: -3.36%. For CC(=O)Nc1ccc(S(=O)(=O)N2CCC(c3nnnn3-c3ccccc3)CC2)cc1, the “activity change, negative = inhibition” value was inactive: -0.345%. In the case of COc1ccc(OCc2cc(C(=O)N3C[C@@H](C)O[C@@H](C)C3)no2)c(Cl)c1, the Potency is reported as inconclusive: 26.9 µM [inhibitor, partial curve]. For O=C(CN1c2ccccc2Sc2ccccc21)NNC(=O)Nc1cccc(Cl)c1, the “activity change, negative = inhibition” value was inactive: 2.73%. In the case of CCOc1ccc(-n2nc(CO)c(C(=O)NCCCc3ccccc3)n2)cc1, the Potency is reported as active: 5.36 µM. In the case of Cc1cc(C)cc(Oc2coc3cc(OCC(=O)NC4CCCCC4)ccc3c2=O)c1, the “activity change, negative = inhibition” value is reported as inactive: 2.96%. CC(C)N1C(=O)C(O)(c2c[nH]c3ccccc23)c2ccccc21 (centres undefined) was tested, and the “activity change, negative = inhibition” value was inactive: -6.02%. With COc1cccc(NC(=O)Nc2cc(C)ccc2OC)c1 the Potency was inconclusive: 15.1 µM [inhibitor, partial curve]. For CC(=O)Nc1ccc(NC(=O)CSc2nc3nc(-c4cccs4)cc(C(F)(F)F)c3c(=O)[nH]2)cc1, the Potency was inconclusive: 21.3 µM [inhibitor, single point]. Cc1cccc(N2CCn3c2nc2c3c(=O)n(CCc3ccccc3)c(=O)n2C)c1 was tested, and the Potency was inconclusive: 19 µM [inhibitor, single point]. O=C(Nc1ccc(N2CCCCC2)cc1)c1cccnc1Cl was tested, and the Potency was inconclusive: 23.9 µM [inhibitor, partial curve]. For CC1Oc2ccccc2N(CC(=O)NCc2ccccc2)C1=O (centres undefined), the Potency was inconclusive: 16.9 µM [inhibitor, single point]. For COc1ccc(CNC(=O)c2csc(Cc3ccc(Cl)cc3)n2)cc1, the Potency was inconclusive: 37.9 µM [inhibitor, partial curve, poor fit]. O=C(COC(=O)C1COc2ccccc2O1)NC(=O)NC1CCCC1 (centres undefined) was tested, and the “activity change, negative = inhibition” value was inactive: 2.16%. COc1cccc(CC(=O)Nc2ccc3c(c2)CCC3)c1 was tested, and the Potency was inconclusive: 21.3 µM [inhibitor, single point]. In the case of Cc1cc2ccccc2n1CCNC(=O)c1ccccc1, the Potency is reported as active: 21.3 µM. In the case of Cc1ccc(-c2nnc(-c3cccc(NC(=O)c4cccs4)c3)o2)cc1, the Potency is reported as active: 2.69 µM. CCC(C(=O)Nc1nc(C)c(C)s1)c1ccccc1 (centres undefined) was tested, and the Potency was inconclusive: 33.8 µM [inhibitor, single point]. With O=C(NCCCN1CCCC1=O)c1cccc(NS(=O)(=O)c2ccc(Br)cc2)c1 the “activity change, negative = inhibition” value was inactive: 7%. With OCCN1CCN(C(c2ccccc2Cl)c2sc3nc(-c4ccco4)nn3c2O)CC1 (centres undefined) the “activity change, negative = inhibition” value was inactive: -13.9%. For COc1ccc(CCNC(=O)c2ccc3c(c2)OCO3)cc1, the Potency was inconclusive: 26.9 µM [inhibitor, single point]. For Cc1ccc(-c2cc(-c3cccc(F)c3)n[nH]2)c(O)c1, the Potency was inconclusive: 0.675 µM [inhibitor, single point]. With Cc1cc(Nc2cccc(Cl)c2)nc(NCc2ccccc2)n1 the Potency was inconclusive: 26.9 µM [inhibitor, partial curve, poor fit]. CN(C)CCNC(=O)c1[nH]nc2c1CCc1ccccc1-2 was tested, and the Potency was inconclusive: 26.9 µM [inhibitor, partial curve]. For CCN=C1S/C(=C\c2cc(OCC)c(O)cc2Br)C(=O)N1CC, the “activity change, negative = inhibition” value was inactive: 2.94%. With CCNC(=O)COc1ccc2ccccc2c1 the Potency was inconclusive: 23.9 µM [inhibitor, single point]. For COc1ccc(C2CC(=O)N3CN(c4ccccc4F)CSC3=C2C#N)cc1OC (centres undefined), the Potency was inconclusive: 37.9 µM [inhibitor, partial curve, poor fit]. For COc1ccc(C(C(=O)NC2CCCCC2)N(C(=O)c2ccco2)c2ccccc2OC)cc1 (centres undefined), the “activity change, negative = inhibition” value was inactive: -0.601%. In the case of Cc1ccc(S(=O)(=O)NCc2ccc3c(c2)OCO3)cc1C, the “activity change, negative = inhibition” value is reported as inactive: 1.33%. For C/C(=N\N(c1ccccc1)c1ccccc1)c1ccc(O)cc1, the “activity change, negative = inhibition” value was inactive: 3.17%. With O=C(Nc1cccc(Oc2ccc(C(=O)O)c(C(=O)O)c2)c1)c1ccc(-c2ccccc2)cc1 the Potency was active: 1.69 µM. CC(C)c1ccc(NC(=O)c2ccc(NC3=NC4CS(=O)(=O)CC4S3)cc2)cc1 (centres undefined) was tested, and the Potency was inconclusive: 19 µM [inhibitor, partial curve].

— PubChem BioAssay AID588342 (National Center for Advancing Translational Sciences (NCATS), 2011)
Note: nearly all actives have a fitted effect of over 55% in size.
Potency is the fitted concentration of half-maximal effect; tags give direction and shape of the fitted curve.
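Throughout, for activity change, negative = inhibition: plate controls were vehicle for no effect and reference inhibitor for full effect.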
